# In the supplement of paper PMC8728848:
# Some of the results follow.
# B1: Jacalin (Artocarpus integrifolia) (protein)
# chain: MAYSSLLSLSVLALLFSISSADTRKWFLANGINQNPIGIIEAAVGVSEDLLNLNGMEAKNDEQSGISQTVIVGPWGAKVSTSSNGKAFDDGAFTGIREINLSYNKETAIGDFQVVYDLNGSPYVGQNHKSFITGFTPVKISLDFPSEYIMEVSGYTGNVSGYVVVRSLTFKTNKKTYGPYGVTSGTPFNLPIENGLIVGFKGSIGYWLDYFSMYLSL
# Legend:
# Assay in all cases: glycan array binding signal (z-score within array); higher = stronger binding
# Settings in all cases: glycan notation: IUPAC condensed, linker removed
# [1] = target: GalNAc(a1-3)GalNAc(b1-3)Gal(a1-4)Gal(b1-4)Glc
# Summary of the method: (§1)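 From the Consortium for Functional Glycomics database, 3228 arrays were curated, keeping only those whose protein sequence was available. Binding is given as a within-array Z-score averaged across arrays sharing a protein sequence and across linkers. Negative Z-scores can be read as non-binding.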
# [2] = target: GalNAc(a1-3)GalNAc(b1-3)Gal(a1-4)Gal(b1-4)GlcNAc
# Summary of the method: as §1
# GalNAc(b1-3)Gal = target: GalNAc(b1-3)Gal
# Summary of the method: as §1
# [3] = target: GalNAc(b1-3)Gal(a1-4)Gal(b1-4)GlcNAc
# Summary of the method: as §1
# [4] = target: GalNAc(b1-3)Gal(a1-4)Gal(b1-4)GlcNAc(b1-3)Gal(b1-4)Glc
# Summary of the method: as §1
# [5] = target: GalNAc(b1-3)Gal(a1-6)Gal(b1-4)Glc
# Summary of the method: as §1
# GalNAc(b1-3)GalNAc = target: GalNAc(b1-3)GalNAc
# Summary of the method: as §1
# GalNAc(b1-3)GlcNAc = target: GalNAc(b1-3)GlcNAc
# Summary of the method: as §1
# GalNAc(b1-4)Gal(b1-4)Glc = target: GalNAc(b1-4)Gal(b1-4)Glc
# Summary of the method: as §1
# GalNAc(b1-4)GlcNAc = target: GalNAc(b1-4)GlcNAc
# Summary of the method: as §1
# [6] = target: GalNAc(b1-4)GlcNAc(b1-2)Man
# Summary of the method: as §1
# [7] = target: GalNAc(b1-4)GlcNAc(b1-2)Man(a1-3)[GalNAc(b1-4)GlcNAc(b1-2)Man(a1-6)]Man(b1-4)GlcNAc(b1-4)GlcNAc
# Summary of the method: as §1
# [8] = target: GalNAc(b1-4)GlcNAc(b1-3)GalNAc(b1-4)GlcNAc
# Summary of the method: as §1
# GalNAc(b1-4)GlcNAc6S = target: GalNAc(b1-4)GlcNAc6S
# Summary of the method: as §1
# GalNAc(b1-6)GalNAc = target: GalNAc(b1-6)GalNAc
# Summary of the method: as §1
# GalNAc3S(b1-4)GlcNAc = target: GalNAc3S(b1-4)GlcNAc
# Summary of the method: as §1
# GalNAc3S(b1-4)GlcNAc3S = target: GalNAc3S(b1-4)GlcNAc3S
# Summary of the method: as §1
# [9] = target: GalNAc3S(b1-4)[Fuc(a1-3)]GlcNAc
# Summary of the method: as §1
# GalNAc4S6S(b1-4)GlcNAc = target: GalNAc4S6S(b1-4)GlcNAc
# Summary of the method: as §1
# GalNAc6S(b1-4)GlcNAc = target: GalNAc6S(b1-4)GlcNAc
# Summary of the method: as §1
# Glc(a1-4)Glc = target: Glc(a1-4)Glc
# Summary of the method: as §1
# [10] = target: Glc(a1-4)Glc(a1-4)Glc(a1-4)Glc
# Summary of the method: as §1
# Glc(a1-6)Glc(a1-6)Glc = target: Glc(a1-6)Glc(a1-6)Glc
# Summary of the method: as §1
# [11] = target: Glc(a1-6)Glc(a1-6)Glc(a1-6)Glc
# Summary of the method: as §1
# Glc(b1-4)Glc = target: Glc(b1-4)Glc
# Summary of the method: as §1
# Glc(b1-6)Glc = target: Glc(b1-6)Glc
# Summary of the method: as §1
# GlcA(b1-3)Gal = target: GlcA(b1-3)Gal
# Summary of the method: as §1
# GlcA(b1-3)GlcNAc = target: GlcA(b1-3)GlcNAc
# Summary of the method: as §1
# GlcA(b1-6)Gal = target: GlcA(b1-6)Gal
# Summary of the method: as §1
# [12] = target: GlcA3S(b1-3)Gal(b1-4)GlcNAc(b1-2)Man
# Summary of the method: as §1
# [13] = target: GlcA3S(b1-3)Gal(b1-4)GlcNAc(b1-3)Gal(b1-4)Glc
# Summary of the method: as §1
# [14] = target: GlcNAc(a1-3)Gal(b1-4)GlcNAc
# Summary of the method: as §1
# [15] = target: GlcNAc(a1-4)Gal(b1-3)GlcNAc
# Summary of the method: as §1
# [16] = target: GlcNAc(a1-4)Gal(b1-4)GalNAc
# Summary of the method: as §1
# [17] = target: GlcNAc(a1-4)Gal(b1-4)GlcNAc
# Summary of the method: as §1
# [18] = target: GlcNAc(a1-4)Gal(b1-4)GlcNAc(b1-3)Gal(b1-4)Glc
# Summary of the method: as §1
# [19] = target: GlcNAc(a1-4)Gal(b1-4)GlcNAc(b1-3)Gal(b1-4)GlcNAc
# Summary of the method: as §1
# [20] = target: GlcNAc(a1-4)Gal(b1-4)GlcNAc(b1-3)Gal(b1-4)GlcNAc(b1-3)Gal(b1-4)GlcNAc
# Summary of the method: as §1
# [21] = target: GlcNAc(a1-4)Gal(b1-4)GlcNAc(b1-3)Gal(b1-4)[Fuc(a1-3)]GlcNAc(b1-3)Gal(b1-4)[Fuc(a1-3)]GlcNAc
# Summary of the method: as §1
# [22] = target: GlcNAc(a1-6)Gal(b1-4)GlcNAc
# Summary of the method: as §1
# [23] = target: GlcNAc(b1-2)Gal(b1-3)GalNAc
# Summary of the method: as §1
# [24] = target: GlcNAc(b1-2)Man(a1-3)[GlcNAc(b1-2)Man(a1-6)]Man(b1-4)GlcNAc(b1-4)GlcNAc
# Summary of the method: as §1
# [25] = target: GlcNAc(b1-2)Man(a1-3)[GlcNAc(b1-2)Man(a1-6)]Man(b1-4)GlcNAc(b1-4)[Fuc(a1-6)]GlcNAc
# Summary of the method: as §1
# [26] = target: GlcNAc(b1-2)Man(a1-3)[GlcNAc(b1-4)][GlcNAc(b1-2)Man(a1-6)]Man(b1-4)GlcNAc(b1-4)GlcNAc
# Summary of the method: as §1
# [27] = target: GlcNAc(b1-2)Man(a1-3)[GlcNAc(b1-4)][GlcNAc(b1-2)Man(a1-6)]Man(b1-4)GlcNAc(b1-4)[Fuc(a1-6)]GlcNAc
# Summary of the method: as §1
binder,measurement,setting,value
B1,glycan array binding signal (z-score),[1],-0.256
same,glycan array binding signal (z-score),[2],-0.32
same,glycan array binding signal (z-score),GalNAc(b1-3)Gal,0.3
same,glycan array binding signal (z-score),[3],0.248
same,glycan array binding signal (z-score),[4],-0.278
same,glycan array binding signal (z-score),[5],-0.239
same,glycan array binding signal (z-score),GalNAc(b1-3)GalNAc,3.34
same,glycan array binding signal (z-score),GalNAc(b1-3)GlcNAc,-0.285
same,glycan array binding signal (z-score),GalNAc(b1-4)Gal(b1-4)Glc,-0.25
same,glycan array binding signal (z-score),GalNAc(b1-4)GlcNAc,-0.011
same,glycan array binding signal (z-score),[6],-0.261
same,glycan array binding signal (z-score),[7],-0.021
same,glycan array binding signal (z-score),[8],-0.259
same,glycan array binding signal (z-score),GalNAc(b1-4)GlcNAc6S,-0.276
same,glycan array binding signal (z-score),GalNAc(b1-6)GalNAc,-0.285
same,glycan array binding signal (z-score),GalNAc3S(b1-4)GlcNAc,-0.268
same,glycan array binding signal (z-score),GalNAc3S(b1-4)GlcNAc3S,-0.28
same,glycan array binding signal (z-score),[9],-0.278
same,glycan array binding signal (z-score),GalNAc4S6S(b1-4)GlcNAc,-0.291
same,glycan array binding signal (z-score),GalNAc6S(b1-4)GlcNAc,-0.28
same,glycan array binding signal (z-score),Glc(a1-4)Glc,-0.236
same,glycan array binding signal (z-score),[10],-0.249
same,glycan array binding signal (z-score),Glc(a1-6)Glc(a1-6)Glc,-0.273
same,glycan array binding signal (z-score),[11],-0.244
same,glycan array binding signal (z-score),Glc(b1-4)Glc,-0.246
same,glycan array binding signal (z-score),Glc(b1-6)Glc,-0.271
same,glycan array binding signal (z-score),GlcA(b1-3)Gal,-0.264
same,glycan array binding signal (z-score),GlcA(b1-3)GlcNAc,-0.28
same,glycan array binding signal (z-score),GlcA(b1-6)Gal,-0.271
same,glycan array binding signal (z-score),[12],-0.262
same,glycan array binding signal (z-score),[13],-0.268
same,glycan array binding signal (z-score),[14],1.26
same,glycan array binding signal (z-score),[15],0.435
same,glycan array binding signal (z-score),[16],0.625
same,glycan array binding signal (z-score),[17],1.08
same,glycan array binding signal (z-score),[18],1.73
same,glycan array binding signal (z-score),[19],2.04
same,glycan array binding signal (z-score),[20],2.63
same,glycan array binding signal (z-score),[21],0.679
same,glycan array binding signal (z-score),[22],1.29
same,glycan array binding signal (z-score),[23],2.21
same,glycan array binding signal (z-score),[24],0.143
same,glycan array binding signal (z-score),[25],0.257
same,glycan array binding signal (z-score),[26],-0.094
same,glycan array binding signal (z-score),[27],-0.162
